Measurements: PubChem BioAssay (Tox21)
Inconclusive results, whose numbers are uncertain, are shown with a selection of clear calls. For some of these results: Potencies beside an inconclusive call are fits to weak or partial responses and may not hold up. The source made the active and inactive calls. Unless noted, calls follow the shape of the dose curve; as a rule, active = well fitted curve in the direction sought with a large enough effect in the repeat runs; inconclusive = weak or mixed curves; inactive = no such curve, though single readings can be large; an effect the other way counts as inactive or inconclusive.

Key:
[1] = qHTS assay for identifying genotoxic compounds that show differential cytotoxicity against isogenic chicken DT40 cell lines with known DNA damage response pathways - Rad54/Ku70 mutant cell line (AID 743015); settings: DT40 Rad54/Ku70 mutant viability, CellTiter-Glo, 40 h; activity change, negative = cytotoxicity: at 66.8 µM (top of the series) unless noted; also: nearly all actives have a fitted effect of over 60% in size; also: potency is read from the fitted curve at half-maximal effect; as to activity change, negative = cytotoxicity: % is scaled to controls: 0 for no effect and ±100 for the full control effect
[2] = qHTS assay to identify small molecule antagonists of the thyroid receptor (TR) signaling pathway - cell viability counter screen (AID 743064); settings: GH3.TRE-Luc viability, CellTiter-Fluor, 24 h; activity change, negative = cytotoxic: at 70.3 µM (top of the series) unless noted; also: potency is read from the fitted curve at half-maximal effect; nearly all actives have a fitted effect of over 50% in size
How it was run: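 Plate GH3.TRE-Luc cells; incubate 4 h at 37 °C; add compound, then T3 to 1 nM final; incubate 23.5 h; add CellTiter-Fluor; incubate 30 min at 37 °C, 5% CO2; read fluorescence.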

[3] = molecular target: Estrogen receptor (Homo sapiens) (UniProt P03372); assay: qHTS assay to identify small molecule agonists of the estrogen receptor alpha (ER-alpha) signaling pathway (AID 743075; calls by dose curve;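 also: HEK293 GripTite cells with ER-alpha and UAS-driven beta-lactamase reporter; potency is read from the fitted curve at half-maximal effect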); settings: HEK293 ER-alpha-UAS-bla, beta-lactamase FRET ratio, 18 h; activation: at 70.1 µM (top of the series)
[4] = molecular target: Estrogen receptor (Homo sapiens) (UniProt P03372); assay: qHTS assay to identify small molecule agonists of the estrogen receptor alpha (ER-alpha) signaling pathway using the BG1 cell line (AID 743079); settings: BG1Luc4E2 cells, ERE-luciferase agonist, 22 h; activation: at 70.3 µM (top of the series) unless noted; also: nearly all actives have a fitted effect of over 20% in size; also: potency is read from the fitted curve at half-maximal effect
[5] = molecular target: Aryl hydrocarbon receptor (Homo sapiens) (UniProt P35869); assay: qHTS assay to identify small molecule that activate the aryl hydrocarbon receptor (AhR) signaling pathway (AID 743085);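 also: HG2L7.5c1 human HepG2 liver cells with stably integrated DRE-driven firefly reporter; % is scaled to controls: 0 for no effect and ±100 for the full control effect; nearly all actives have a fitted effect of over 15% in size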
How it was run: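 Steps: seed HepG2-AhR-luc cells; allow 5 h at 37C; pin-transfer test compound or vehicle; incubate 24 h at 37C; add viability dye (30 min, 37C) and read fluorescence; add luciferase substrate (30 min, RT) and read luminescence.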

[6] = molecular target: Androgen receptor (Homo sapiens) (UniProt P10275); assay: qHTS assay to identify small molecule antagonists of the androgen receptor (AR) signaling pathway (AID 743035; active = well fitted inhibition curve with a large enough effect in the signal ratio in the repeat runs, not every such curve was filed as active; inconclusive = weak or mixed curves, or effect the other way; inactive = no such curve, though single readings can be large or run the other way; the % refers to the signal ratio; also: % is scaled to controls: 0 for no effect and ±100 for the full control effect); settings: HEK293 AR-UAS-bla, R1881-stimulated, beta-lactamase FRET, 16 h; activity change, negative = inhibition: at 58.5 µM (top of the series) unless noted
How it was run: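 Quantitative HTS of the Tox21 10K library used HEK293 AR-UAS-bla cells stimulated with R1881 alongside compound for 16 h at 37C, followed by beta-lactamase FRET detection (LiveBLAzer B/G, 2 h, RT).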

[7] = qHTS assay to identify small molecule antagonists of the thyroid receptor (TR) signaling pathway (AID 743065); also: nearly all actives have a fitted effect of over 55% in size; also: potency is read from the fitted curve at half-maximal effect
How it was run: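 Antagonism measured as loss of luciferase signal in GH3 cells stably carrying a TRE-luciferase reporter, co-treated with compound and T3 (1 nM final) for 23.5 h at 37 C. Viability was read in the same well by CellTiter-Fluor.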

[8] = qHTS assay to identify small molecule antagonists of the androgen receptor (AR) signaling pathway - cell viability counter screen (AID 743033; also: nearly all actives have a fitted effect of over 45% in size; also: potency is read from the fitted curve at half-maximal effect); settings: AR-bla HEK293 viability, CellTiter-Glo luminescence, 16 h; activity change, negative = cytotoxicity: at 58.5 µM (top of the series) unless noted
[9] = qHTS assay to identify small molecule antagonists of the estrogen receptor alpha (ER-alpha) signaling pathway using the BG1 cell line (AID 743080; calls by dose curve;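 also: BG1 cells stimulated with 17beta-estradiol alongside compound; % is scaled to controls: 0 for no effect and ±100 for the full control effect; nearly all actives have a fitted effect of over 25% in size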); settings: BG1Luc4E2 ERE-luciferase antagonist mode, luminescence; activity change, negative = inhibition: at 70.3 µM (top of the series) unless noted
How it was run: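 Quantitative HTS on the Tox21 10K library: BG1 cells with endogenous ER-alpha and ERE-luciferase reporter, 17beta-estradiol stimulation, 21.5 h compound exposure, luminescence endpoint with parallel fluorescence cytotoxicity counter-read.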

[10] = qHTS assay to identify small molecule antagonists of the estrogen receptor alpha (ER-alpha) signaling pathway - cell viability counter screen (AID 743074; calls by dose curve;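 also: HEK293 cells carrying ER-alpha-UAS-bla reporter stimulated with 17beta-estradiol; nearly all actives have a fitted effect of over 45% in size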; also: potency is read from the fitted curve at half-maximal effect)
[11] = qHTS assay for identifying genotoxic compounds that show differential cytotoxicity against isogenic chicken DT40 cell lines with known DNA damage response pathways - wild type cell line (AID 743012); settings: DT40 wild type chicken cells viability, CellTiter-Glo, 40 h; activity change, negative = cytotoxicity: at 68.4 µM (top of the series) unless noted; also: nearly all actives have a fitted effect of over 60% in size; also: potency is read from the fitted curve at half-maximal effect
How it was run: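 Luminescent ATP viability signal (CellTiter-Glo, 30 min RT) recorded after wild type DT40 cells were incubated with compounds for 40 h at 37 C/5% CO2.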

[12] = molecular target: Peroxisome proliferator-activated receptor gamma (Homo sapiens) (UniProt P37231); assay: qHTS assay to identify small molecule agonists of the peroxisome proliferator-activated receptor gamma (PPARg) signaling pathway (AID 743094; active = well fitted activation curve with a large enough effect in the signal ratio in the repeat runs, not every such curve was filed as active; inconclusive = weak or mixed curves, or effect the other way; inactive = no such curve, though single readings can be large or run the other way; the % refers to the signal ratio; also: % is scaled to controls: 0 for no effect and ±100 for the full control effect); settings: HEK293H PPARg-UAS-bla, beta-lactamase FRET ratio, 17 h; activation: at 57 µM (top of the series) unless noted
How it was run: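 Reporter activation was scored by fluorescence of cleaved LiveBLAzer B/G substrate (1 h, room temperature) in PPARg-bla HEK293H cells previously treated 17 h at 37C with DMSO-dissolved compounds.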

[13] = qHTS assay to identify small molecule antagonists of the estrogen receptor alpha (ER-alpha) signaling pathway using the BG1 cell line - cell viability counter screen (AID 743081); settings: BG1Luc4E2 viability, CellTiter-Fluor, 22 h; activity change, negative = cytotoxicity: at 70.3 µM (top of the series) unless noted;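 also: compound given together with 17beta-estradiol as the ER stimulus; nearly all actives have a fitted effect of over 45% in size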; also: potency is read from the fitted curve at half-maximal effect; as to activity change, negative = cytotoxicity: % is scaled to controls: 0 for no effect and ±100 for the full control effect
[14] = qHTS assay for identifying genotoxic compounds that show differential cytotoxicity against isogenic chicken DT40 cell lines with known DNA damage response pathways - Rev3 mutant cell line (AID 743014); settings: chicken DT40 Rev3-/- viability, CellTiter-Glo, 40 h; activity, negative = cytotoxicity: at 68.4 µM (top of the series) unless noted; also: nearly all actives have a fitted effect of over 55% in size; also: potency is read from the fitted curve at half-maximal effect
[15] = qHTS assay to identify aromatase inhibitors - cell viability counter screen (AID 743084); settings: MCF-7 aro ERE viability, CellTiter-Fluor, 24 h; activity change, negative = cytotoxicity: at 70.3 µM (top of the series) unless noted;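 also: cells stimulated with testosterone during compound exposure; nearly all actives have a fitted effect of over 55% in size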; also: potency is read from the fitted curve at half-maximal effect
[16] = qHTS assay to identify small molecule antagonists of the androgen receptor (AR) signaling pathway using the MDA cell line - cell viability counter screen (AID 743041; also: % is scaled to controls: 0 for no effect and ±100 for the full control effect; nearly all actives have a fitted effect of over 45% in size); settings: MDA-kb2 viability, CellTiter-Fluor, 16 h, cells co-treated with R1881 androgen agonist; viability change, negative = cytotoxic: at 70.3 µM (top of the series)
How it was run: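 Using the breast carcinoma line MDA-kb2 AR-luc, test chemicals were co-incubated with R1881 for 16 h; CellTiter-Fluor reagent, added at 15.5 h, provided a fluorescence measure of live cells.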

[17] = qHTS assay to identify small molecule that activate the aryl hydrocarbon receptor (AhR) signaling pathway - cell viability counter screen (AID 743086); also: nearly all actives have a fitted effect of over 45% in size; also: potency is read from the fitted curve at half-maximal effect
How it was run: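 Cytotoxicity counter screen: CellTiter-Fluor signal (30 min, 37 C) in 4000 HepG2 cells/well carrying the DRE-luciferase reporter, following 24 h compound exposure at 37 C.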
Tags tell the direction and shape of the fitted curve or compound fluorescence and quenching.

O=C(O)c1cc2cc(Cc3cccnc3)ccc2o1
Potency [1]: inactive | Potency [2]: inconclusive: 26.6 µM [rising, partial curve, poor fit] | Potency [3]: inconclusive: 26.8 µM [activator, partial curve, poor fit] | Potency [4]: active: 18.8 µM | Potency [5]: inactive

CC1(C)C[C@@H]1C(=O)N/C(=C\CCCCSC[C@H](N)C(=O)O)C(=O)O
Potency [1]: inconclusive: 29.8 µM [rising, partial curve, poor fit] | Potency [6]: inactive | Potency [7]: inactive

NCC1CCC(C(=O)O)CC1 (stereo unspecified)
Potency [8]: inconclusive: 0.0723 µM [cytotoxic, full curve, poor fit] | Potency [9]: inactive

COc1c(O)cc2c(c1O)[C@@H]1O[C@H](CO)[C@@H](O)[C@H](O)[C@H]1OC2=O
Potency [10]: inconclusive: 11.5 µM [rising, single point]

CCCCCC(O)/C=C/C=O (stereo unspecified)
Potency [10]: inconclusive: 3.38 µM [rising, full curve, poor fit]

C#C[C@]1(O)CC[C@H]2[C@@H]3CCC4=C(CCC(=O)C4)[C@H]3CC[C@@]21C
Potency [11]: inconclusive: 11.4 µM [cytotoxic, partial curve, poor fit] | Potency [1]: inconclusive: 14.3 µM [cytotoxic] | Potency [12]: inactive

O=C(O)[C@@H](O)[C@H](O)[C@H](O)[C@@H](O)C(=O)O (tested in a mixture with another compound)
Potency [10]: inconclusive: 10.7 µM [rising, single point] | Potency [13]: inconclusive: 29.8 µM [cytotoxic, partial curve, poor fit]

NC(=S)NS(=O)(=O)c1ccc(N)cc1
Potency [13]: inconclusive: 0.0038 µM [rising, full curve, poor fit]

N#Cc1c(N(CC(=O)O)CC(=O)O)sc(C(=O)O)c1CC(=O)O
Potency [14]: inconclusive: 26.6 µM [rising, partial curve, poor fit] | Potency [4]: inconclusive: 29.8 µM [activator, partial curve] | Potency [13]: inactive

Cc1c(O)c(=O)ccn1C
Potency [14]: inconclusive: 29.8 µM [rising, partial curve, poor fit]

O=P(O)(O)OC(Cn1cncn1)(Cn1cncn1)c1ccc(F)cc1F
Potency [4]: inactive | Potency [13]: inconclusive: 13.3 µM [cytotoxic, single point] | Potency [15]: inactive

c1ccc2c(c1)OCC(CN1CCCCC1)O2 (stereo unspecified)
activity, negative = cytotoxicity [14]: inconclusive: -32.5% [cytotoxic] | Potency [1]: inconclusive: 29.8 µM [cytotoxic, single point]

O=P(O)(O)OC[C@H]1O[C@](O)(COP(=O)(O)O)[C@@H](O)[C@@H]1O
Potency [16]: inactive | Potency [3]: inconclusive: 37.9 µM [falling, partial curve, poor fit]

CC(CN(C)C)CN1c2ccccc2S(=O)(=O)c2ccccc21 (stereo unspecified)
Potency [6]: inactive | Potency [2]: inconclusive: 29.8 µM [cytotoxic, single point] | Potency [7]: inconclusive: 37.6 µM [inhibitor, partial curve, poor fit] | Potency [13]: inconclusive: 5.96 µM [cytotoxic, full curve] | Potency [15]: inconclusive: 29.8 µM [cytotoxic, partial curve] | Potency [17]: inconclusive: 21.1 µM [falling, partial curve]

CC(C)(C)C(=O)OCC(=O)[C@H]1CC[C@H]2[C@@H]3CCC4=CC(=O)CC[C@]4(C)[C@H]3CC[C@]12C
Potency [11]: inactive | Potency [8]: inactive | activation [4]: inconclusive: 25.6% [phenotype inactive] | Potency [9]: inactive

c1ccc(-n2cnnn2)cc1
Potency [14]: inconclusive: 18.8 µM [rising, partial curve, poor fit] | Potency [10]: inactive

O=C(O)c1ccc(NC(=O)[C@H](Cc2ccc(O)cc2)NC(=O)c2ccccc2)cc1
Potency [1]: inconclusive: 21.1 µM [rising, partial curve, poor fit] | Potency [6]: inactive | Potency [7]: inactive | Potency [17]: inactive | Potency [12]: inactive
